{
  "source": "the supplement of paper PMC9446081",
  "note": "The whole screen tested about 39,000 compounds, of which about 220 (0.56%) showed activity. The list shows a part of the results.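 Further: static incubation at 37 °C against the wild-type strain, values averaged over two biological replicates.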",
  "data": [
    {"system": "Escherichia coli K-12 BW25113", "assay": "relative growth (OD600 normalised to plate interquartile mean) (fraction); higher = less growth inhibition, active = 0.2 or less", "conditions": "50 µM; LB; incubation time: overnight (16-24 h)", "values": [
      {"smiles": "C[C@@H]1CN([C@@H](C)CO)C(=O)c2cc(NC(=O)Nc3ccc(C(F)(F)F)cc3)ccc2O[C@@H](C)CCCCO[C@@H]1CN(C)S(=O)(=O)c1cccs1", "relative growth": "inactive: 1.04"},
      {"smiles": "O=C(O)[C@@H](O)c1ccccc1", "relative growth": "inactive: 0.971"},
      {"smiles": "O=C(CN1CCOCC1)NCC[C@@H]1CC[C@@H](NC(=O)c2ccc3c(c2)OCO3)[C@@H](CO)O1", "relative growth": "inactive: 0.997"},
      {"smiles": "C[C@@H]1CCCCO[C@H](CN(C)S(C)(=O)=O)[C@@H](C)CN([C@@H](C)CO)C(=O)c2cc(NC(=O)CCCN(C)C)ccc2O1", "relative growth": "inactive: 1.01"},
      {"smiles": "C[C@H](CO)N1C[C@H](C)[C@@H](CN(C)Cc2ccc(C(=O)Nc3ccccc3N)cc2)Oc2ccc(NC(=O)Nc3ccc(F)cc3)cc2C1=O", "relative growth": "inactive: 0.994"},
      {"smiles": "COc1ccc(S(=O)(=O)Nc2cccc3c2O[C@@H](CN(C)Cc2ccc(-c4ccccc4)cc2)[C@H](C)CN([C@H](C)CO)C3=O)cc1", "relative growth": "inactive: 1.02"},
      {"smiles": "C[C@H](CO)N1C[C@H](C)[C@H](CN(C)Cc2ccncc2)OCCCC[C@H](C)Oc2ccc(NS(=O)(=O)c3ccc(Cl)cc3)cc2C1=O", "relative growth": "inactive: 0.995"},
      {"smiles": "O=C(C[C@H]1CC[C@@H]2[C@H](COC[C@@H](O)CN2S(=O)(=O)c2ccccc2)O1)NCc1ccc(-c2ccccc2)cc1", "relative growth": "inactive: 0.953"},
      {"smiles": "C[C@@H]1CN([C@H](C)CO)S(=O)(=O)c2ccc(-c3cncnc3)cc2O[C@@H]1CN(C)C(=O)c1ccc2c(c1)OCO2", "relative growth": "inactive: 1.01"},
      {"smiles": "Cc1cc(C(=O)Nc2cccc3c2O[C@@H](CN(C)Cc2ccc(C(=O)O)cc2)[C@H](C)CN([C@H](C)CO)C3=O)n(C)n1", "relative growth": "inactive: 1.06"},
      {"smiles": "C[C@@H]1CCCCO[C@H](CN(C)S(=O)(=O)c2ccc(F)cc2)[C@@H](C)CN([C@H](C)CO)C(=O)c2cc(NC(=O)Nc3ccc(C(F)(F)F)cc3)ccc2O1", "relative growth": "inactive: 1.02"},
      {"smiles": "C[C@@H]1CN([C@@H](C)CO)C(=O)c2c(c3ccccc3n2C)-c2ccccc2CO[C@H]1CN(C)Cc1ccccc1C(F)(F)F", "relative growth": "inactive: 1.06"},
      {"smiles": "CC(=O)OCCNC(=O)c1cccnc1", "relative growth": "inactive: 0.979"},
      {"smiles": "CO[C@@H]1CN(C)C(=O)c2ccc(NC(=O)Nc3cccc(F)c3)cc2OC[C@@H](C)N(C(=O)Nc2c(C)noc2C)C[C@H]1C", "relative growth": "inactive: 0.957"},
      {"smiles": "O=C(O)C=C(CC(=O)O)C(=O)O", "relative growth": "inactive: 1.06"},
      {"smiles": "C=CCCCCCCCCC=O", "relative growth": "inactive: 0.93"},
      {"smiles": "CCC(Cc1c(I)cc(I)c(N)c1I)C(=O)O", "note": "(stereo not given)", "relative growth": "inactive: 0.832"},
      {"smiles": "C[C@@H]1CCCCO[C@@H](CN(C)Cc2ccccc2)[C@@H](C)CN([C@H](C)CO)C(=O)c2cc(NC(=O)C3CCCCC3)ccc2O1", "relative growth": "inactive: 0.989"},
      {"smiles": "C[C@H](CO)N1C[C@H](C)[C@H](CN(C)S(=O)(=O)c2cn(C)cn2)Oc2ccc(NC(=O)CCC(F)(F)F)cc2CC1=O", "relative growth": "inactive: 1"},
      {"smiles": "COc1ccc(CN(C)C[C@H]2OCCCC[C@H](C)Oc3ccc(NS(=O)(=O)c4ccc(F)cc4)cc3C(=O)N([C@@H](C)CO)C[C@H]2C)cc1", "relative growth": "inactive: 0.99"},
      {"smiles": "Cc1nc(CO)co1", "relative growth": "inactive: 0.963"},
      {"smiles": "C[C@@H]1CN([C@H](C)CO)C(=O)c2cc(NS(=O)(=O)c3ccccc3)ccc2O[C@@H]1CN(C)Cc1ccncc1", "relative growth": "inactive: 0.983"},
      {"smiles": "C[C@@H]1CN([C@H](C)CO)C(=O)c2cc(NS(=O)(=O)c3cn(C)cn3)ccc2O[C@@H]1CN(C)S(=O)(=O)c1cn(C)cn1", "relative growth": "inactive: 1.02"},
      {"smiles": "CC(C)(C)Nc1nc(=O)[nH]c(=O)[nH]1", "relative growth": "inactive: 1.01"},
      {"smiles": "Cc1cccc2[nH]c(CN)nc12", "relative growth": "inactive: 1.01"},
      {"smiles": "C[C@H](CO)N1C[C@H](C)[C@H](CN(C)S(=O)(=O)c2cn(C)cn2)Oc2ccc(NC(=O)Cc3cn(C)c4ccccc34)cc2C1=O", "relative growth": "inactive: 0.991"},
      {"smiles": "C[C@@H]1CN([C@@H](C)CO)C(=O)c2cc(C#CCN(C)C)cnc2O[C@@H]1CN(C)S(C)(=O)=O", "relative growth": "inactive: 0.981"},
      {"smiles": "C[C@H](CO)N1C[C@H](C)[C@H](CN(C)Cc2ccc(C(=O)Nc3ccccc3N)cc2)OCc2cn(nn2)CCCC1=O", "relative growth": "inactive: 1.01"},
      {"smiles": "O=C(NCCN1CCOCC1)[C@@H]1c2ccccc2C(=O)N(Cc2cc(C(F)(F)F)cc(C(F)(F)F)c2)[C@H]1c1ccc(CO)cc1", "relative growth": "inactive: 0.993"},
      {"smiles": "Cc1noc(C)c1S(=O)(=O)Nc1ccc2c(c1)C(=O)N([C@H](C)CO)C[C@H](C)[C@@H](CN(C)Cc1ccccc1)OCCCC[C@H](C)O2", "relative growth": "inactive: 1"},
      {"smiles": "COc1ccc(CN(C)C[C@@H]2Oc3ccc(NC(=O)CCCN(C)C)cc3C(=O)N([C@H](C)CO)C[C@H]2C)cc1", "relative growth": "inactive: 0.999"},
      {"smiles": "C[C@@H]1CCCCO[C@H](CN(C)Cc2ccccc2)[C@@H](C)CN([C@H](C)CO)C(=O)c2cc(NC(=O)c3ccncc3)ccc2O1", "relative growth": "inactive: 0.999"},
      {"smiles": "C[C@H]1CCCCO[C@@H](CN(C)C(=O)CCC(F)(F)F)[C@@H](C)CN([C@@H](C)CO)C(=O)c2cc(NC(=O)NC3CCCCC3)ccc2O1", "relative growth": "inactive: 1.02"},
      {"smiles": "Cc1ccc(S(=O)(=O)Nc2ccc3c(c2)C(=O)N([C@@H](C)CO)C[C@H](C)[C@@H](CN(C)C(=O)Nc2cccc4ccccc24)O3)cc1", "relative growth": "inactive: 0.998"},
      {"smiles": "COc1ccc(CN(C)C[C@H]2OCCCC[C@@H](C)Oc3ccc(NC(=O)Nc4cccc5ccccc45)cc3C(=O)N([C@H](C)CO)C[C@H]2C)cc1", "relative growth": "inactive: 1.03"},
      {"smiles": "C[C@@H]1CN([C@@H](C)CO)C(=O)c2cc(NC(=O)CCN3CCOCC3)ccc2O[C@H]1CN(C)Cc1ccc(C(=O)O)cc1", "relative growth": "inactive: 1.02"},
      {"smiles": "C[C@@H]1CCCCO[C@@H](CN(C)C(=O)Nc2ccc3c(c2)OCO3)[C@H](C)CN([C@@H](C)CO)C(=O)c2cc(NC(=O)Nc3ccc4c(c3)OCO4)ccc2O1", "relative growth": "inactive: 1.03"},
      {"smiles": "C[C@H](CO)N1C[C@H](C)[C@@H](CN(C)C(=O)NC2CCCCC2)OCCCC[C@H](C)Oc2ccc(NC(=O)Nc3ccc4c(c3)OCO4)cc2C1=O", "relative growth": "inactive: 0.988"},
      {"smiles": "COc1ccc(NC(=O)N(C)C[C@H]2OCCCC[C@H](C)Oc3ccc(NC(=O)NC(C)C)cc3C(=O)N([C@H](C)CO)C[C@@H]2C)cc1", "relative growth": "inactive: 1.01"},
      {"smiles": "C[C@@H]1CN([C@H](C)CO)C(=O)Cc2cc(NS(=O)(=O)c3ccccc3)ccc2O[C@@H]1CN(C)Cc1ccncc1", "relative growth": "inactive: 0.986"},
      {"smiles": "O=C(CN1CCOCC1)NCC[C@H]1CC[C@@H](NS(=O)(=O)c2ccc(F)cc2)[C@H](CO)O1", "relative growth": "inactive: 0.986"},
      {"smiles": "C[C@@H]1CN([C@@H](C)CO)C(=O)c2cccc(NC(=O)c3ccc(-c4nccs4)cc3)c2O[C@@H]1CN(C)Cc1ccc(C(=O)Nc2ccccc2N)cc1", "relative growth": "inactive: 0.979"},
      {"smiles": "CCOc1ccc(-n2c([C@@H](C)N(Cc3cccnc3)C(=O)Cc3ccc(F)c(C(F)(F)F)c3)nc3ncccc3c2=O)cc1", "relative growth": "inactive: 0.789"},
      {"smiles": "O=C(C[C@H]1C[C@@H]2c3cc(NS(=O)(=O)c4ccc(F)cc4)ccc3O[C@@H]2[C@@H](CO)O1)NC1CCCCC1", "relative growth": "inactive: 1.02"},
      {"smiles": "Cc1ccc(S(=O)(=O)Nc2ccc3c(c2)C(=O)N([C@@H](C)CO)C[C@@H](C)[C@H](CN(C)Cc2ccc4c(c2)OCO4)OCCCC[C@@H](C)O3)cc1", "relative growth": "inactive: 0.996"},
      {"smiles": "O=C(C[C@@H]1CC[C@@H]2NC[C@@H](O)COC[C@H]2O1)NCCN1CCCC1", "relative growth": "inactive: 0.998"},
      {"smiles": "C[C@H](CO)N1C[C@H](C)[C@H](CN(C)C(=O)c2ccc3c(c2)OCO3)Oc2cc(-c3ccncc3)ccc2S1(=O)=O", "relative growth": "inactive: 0.99"},
      {"smiles": "CC(=O)N(C)C[C@@H]1Oc2ncc(C#C[C@H](C)O)cc2C(=O)N([C@H](C)CO)C[C@H]1C", "relative growth": "inactive: 1.04"},
      {"smiles": "C[C@@H]1CN([C@@H](C)CO)C(=O)CCCn2cc(nn2)CO[C@H]1CN(C)C(=O)Nc1ccc(N2CCN(C)CC2)cc1", "relative growth": "inactive: 1.01"},
      {"smiles": "CNC[C@@H]1Oc2ccc(NS(=O)(=O)c3cn(C)cn3)cc2C(=O)N([C@@H](C)CO)C[C@@H]1C", "relative growth": "inactive: 0.83"},
      {"smiles": "CCS(=O)(=O)N1C[C@]2(CN(C2)C(=O)c2ccc3c(c2)OCO3)c2c(n(c3cc(ccc23)OC)C)[C@@H]1CO", "relative growth": "inactive: 0.988"},
      {"smiles": "COc1ccc2c3c([nH]c2c1)[C@H](CO)N(C[C@]13CCN(CC1)Cc1cc(on1)-c1ccccc1)C(=O)Nc1ccc(cc1)F", "relative growth": "inactive: 1.01"},
      {"smiles": "COc1ccc(-c2oc3cc(O[C@@H]4O[C@@H](C)[C@H](O)[C@@H](O)[C@H]4O)cc(O)c3c(=O)c2O[C@@H]2O[C@H](CO)[C@@H](O)[C@H](O)[C@H]2O)cc1", "relative growth": "inactive: 0.95"},
      {"smiles": "C[C@@H]1CCCCO[C@H](CN(C)C(=O)c2ccncc2)[C@@H](C)CN([C@@H](C)CO)C(=O)c2cc(NS(C)(=O)=O)ccc2O1", "relative growth": "inactive: 0.98"},
      {"smiles": "C[C@H](CO)N1C[C@H](C)[C@@H](CN(C)Cc2ccc(Oc3ccccc3)cc2)Oc2ccc(NC(=O)c3ccncc3)cc2CC1=O", "relative growth": "inactive: 0.971"},
      {"smiles": "C[C@@H]1CN([C@@H](C)CO)C(=O)c2cc(NC(=O)Nc3ccc4c(c3)OCO4)ccc2O[C@@H](C)CCCCO[C@@H]1CN(C)Cc1ccccc1", "relative growth": "inactive: 1"},
      {"smiles": "COc1ccc(NC(=O)Nc2ccc3c(c2)C(=O)N([C@H](C)CO)C[C@@H](C)[C@H](CN(C)C(=O)Nc2ccccc2)OCCCC[C@@H](C)O3)cc1", "relative growth": "inactive: 1.03"},
      {"smiles": "CO[C@H]1CN(C)C(=O)c2ccc(NC(=O)C3CC3)cc2OC[C@H](C)N(C(=O)Cc2ccccn2)C[C@@H]1C", "relative growth": "inactive: 1.01"},
      {"smiles": "Cc1cc(C(=O)Nc2cccc3c2O[C@@H](CN(C)C(=O)Nc2c(C)noc2C)[C@@H](C)CN([C@H](C)CO)C3=O)n(C)n1", "relative growth": "inactive: 1.01"},
      {"smiles": "O=C(C[C@H]1CC[C@@H]2[C@H](COC[C@H](O)CN2S(=O)(=O)c2ccccc2)O1)N1CCc2ccccc2C1", "relative growth": "inactive: 1.01"}
    ]}
  ]
}
